40 sequences from the supplement of paper PMC10441789 can be followed below.

This is one part of the list. Antibody binding of pooled human sera (four to six donors per pool; dilution not stated) to peptides of the Trypanosoma cruzi antigen TSSA on microarrays. Quantile-normalised fluorescence in arbitrary units, mean of duplicate arrays; higher = more binding. No active / inactive call. The uninfected pools are read here as the healthy donors of the same country. The strongest signals lie near the top of the scale (about 60,000).

This experiment deals with pooled sera of chronic Chagas disease patients, USA. Put plainly: antibody binding signal (normalised fluorescence) (arbitrary fluorescence units); higher = stronger serum antibody binding to peptide. On the procedure:
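Microarray of 15-residue peptides over residues 30-55 of Trypanosoma cruzi TSSAII, each with 1 to 10 substitutions at naturally variable positions, probed with one serum pool per country.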
SGTDKKPATGETPSQ registered an antibody binding signal of 23200.

For SGKEKKTATGGAPSQ, the antibody binding signal worked out at 4680.

In the case of TDNKTAAGGTPSPPG, the antibody binding signal came out at 1270.

On to KKPATGGAPSPPGAS, for which the antibody binding signal turned out to be 929.

The sequence KDKKPATGEAPSPSG came in with an antibody binding signal of 30900.

As to KDNKAATGGTPSQPG, the antibody binding signal was 244.

SSTPPSGKENKPAAG had an antibody binding signal of 13800.

The sequence SGTENKTAAGETPSP displayed an antibody binding signal of 4890.

In the case of GTENKAATGETPSQS, the antibody binding signal came to 13200.

For STPPSGTENKTAAGG, the antibody binding signal worked out at 38100.

The sequence TENKTATGGAPSPSG gave an antibody binding signal of 619.

Consider PSGTDNKPAAGGTPS, for which the antibody binding signal came to 7560.

For GTENKAATGGTPSPP, the antibody binding signal was found to be 734.

On to GKEKKAATGETPSQP, for which the antibody binding signal was 9940.

Consider TEKKAAAGGAPSPSG, for which the antibody binding signal was 1660.

Sequence PPSGKDNKAATGEAP registered an antibody binding signal of 23400.

DKKPAAGEAPSPSGA yielded an antibody binding signal of 16200.

The sequence GTDKKPAAGEAPSQS displayed an antibody binding signal of 16100.

For DNKPAAGGAPSPSGA, the antibody binding signal was 755.

For TEKKAAAGGAPSPPG, the antibody binding signal turned out to be 2140.

For the sequence PPSGKDKKPAAGEAP, the antibody binding signal is 8400.

PPSGTEKKAATGEAP yielded an antibody binding signal of 25100.

The sequence NKAAAGETPSPSGAS registered an antibody binding signal of 1520.

With TISTPPSGKDKKAAA, the antibody binding signal came out at 621.

KTATGETPSQSGASS showed an antibody binding signal of 4880.

The sequence GKDKKAAAGEAPSQP yielded an antibody binding signal of 7040.

Consider GKEKKPAAGGAPSQP, for which the antibody binding signal turned out to be 2950.

For the sequence PSGTDNKAATGGAPS, the antibody binding signal amounted to 1770.

TPPSGKEKKPAAGGA displayed an antibody binding signal of 822.

As for TEKKTATGEAPSQSG, the antibody binding signal is 20600.

In the case of TDNKAAAGGTPSQPG, the antibody binding signal was 1070.

With ENKAATGEAPSPSGA, the antibody binding signal was 28900.

As to KKTATGEAPSQSGAS, the antibody binding signal was 14500.

In the case of GKDKKPATGEAPSPS, the antibody binding signal was 31400.

KENKAAAGGTPSPSG registered an antibody binding signal of 917.

The sequence TDKKPATGETPSQSG had an antibody binding signal of 21900.

In turn, DKKAATGETPSPSGA showed an antibody binding signal of 10500.

Turning to STPPSGKDKKAAAGE, the antibody binding signal turned out to be 1790.

Take TISTPPSGKDNKTAA: the antibody binding signal amounted to 3410.

In turn, TPPSGTDNKAATGEA came in with an antibody binding signal of 11500.
